Over roughly 81,000 sequences, “one-hybrid fitness for binding parS DNA” has its median near -0.17; the highest 2% begin near 0.51. Some of the results follow. Where only a bound is given, the exact number is not on record here.

B1: Caulobacter ParB omega fusion; a variant is named by its letters at X, in order, B8GW30 (parent)
chain: MESVVVGEPGMSEGRRGLGRGLSALLGEVDAAPAQAPGEQLGGSREAPIEILQRNPDQPRRTFREEDLEDLSNSIREKGVLQPILVRPSPDTAGEYQIVAGERAWRAAQRAGLKTVPIMVRELDDLAVLEIGIIENVQRADLNVLEEALSYKVLMEKFERTQENIAQTIGKSXSHVANXMRLLXLPDEVQSYLVSGELTAXHARAIAAAADPVALAKQIIEGGLSVRETEALARKAPNLSAGKSKGGRPPRVKDTDTQALESDLSSVLGLDVSIDHRGSTGTLTITYATLEQLDDLCNRLTRGI

The variants in this test derive from B1. The test can be described thus: one-hybrid fitness for binding parS DNA (scaled: cognate 1, non-cognate 0); higher = stronger binding. The following applies: with parS DNA site. A digest of the protocol:
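In E. coli USO, a HIS3 reporter with its site placed 19 bp from the promoter was used to select Caulobacter ParB variants randomised at four specificity codons. Growth lasted 48 hours at 37°C on histidine-free M9 containing 0.1 mM IPTG and 5 mM 3-AT. Fitness was taken as the log change in variant-to-wild-type read ratio from Illumina sequencing of pre- and post-selection plasmids, rescaled between the non-cognate and cognate sites.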
Take HDGV: the “one-hybrid fitness for binding parS DNA” value was no more than 0.2.
The figure for QYSC is no more than 0.2.
For the variant HGYA, the “one-hybrid fitness for binding parS DNA” value was no more than 0.2.
For HHGR the value was no more than 0.2; for RNTY, 0.368.
The figure for LMES is no more than 0.2; for AQHE it is no more than 0.2; for TCAT it is no more than 0.2.
As for LYFS, the “one-hybrid fitness for binding parS DNA” value is no more than 0.2.
Consider KCTW, for which the “one-hybrid fitness for binding parS DNA” value is no more than 0.2.
For SSKA the value was no more than 0.2.
For RRVV the value was no more than 0.2; for PDGW, no more than 0.2.
For LTAL the value was no more than 0.2.
In the case of YING, the “one-hybrid fitness for binding parS DNA” value was no more than 0.2.
The figure for HRSG is 0.277; for EHRV it is no more than 0.2.
Take CVTM: the “one-hybrid fitness for binding parS DNA” value is no more than 0.2.
Turning to ISCP, the “one-hybrid fitness for binding parS DNA” value was no more than 0.2.
The figure for SKMG is no more than 0.2.
For TDRM the value was no more than 0.2.
The figure for FGAR is no more than 0.2.
Turning to EDMS, the “one-hybrid fitness for binding parS DNA” value is no more than 0.2.
Consider FGTS, for which the “one-hybrid fitness for binding parS DNA” value was no more than 0.2.
Regarding PNAP, the “one-hybrid fitness for binding parS DNA” value was no more than 0.2.
With HADI, the “one-hybrid fitness for binding parS DNA” value was no more than 0.2.
Take PERY: the “one-hybrid fitness for binding parS DNA” value is no more than 0.2.
For KQTV the value was no more than 0.2.
For WFSG the value was no more than 0.2; for QKRG, no more than 0.2; for KQTC, no more than 0.2.
For IMTL the value was no more than 0.2; for ADRE, no more than 0.2; for QNYE, no more than 0.2.
In the case of IPFL, the “one-hybrid fitness for binding parS DNA” value was no more than 0.2.
The figure for DTWP is no more than 0.2.
The figure for QMTC is no more than 0.2; for RSFR it is no more than 0.2; for DPKT it is no more than 0.2.
The figure for SCET is no more than 0.2.
IVLQ: the “one-hybrid fitness for binding parS DNA” value is no more than 0.2.
The figure for TTCN is no more than 0.2.
The figure for VPRT is no more than 0.2.
Turning to QQTF, the “one-hybrid fitness for binding parS DNA” value was no more than 0.2.
For IRLH the value was no more than 0.2; for HSNW, no more than 0.2.
The figure for NFTT is no more than 0.2.
The figure for GTSI is no more than 0.2; for MEQR it is no more than 0.2; for RFLQ it is no more than 0.2.
As for ILPY, the “one-hybrid fitness for binding parS DNA” value was no more than 0.2.
Consider RIEM, for which the “one-hybrid fitness for binding parS DNA” value is no more than 0.2.
For QTPA the value was no more than 0.2; for HNKS, no more than 0.2.
For AMQT the value was no more than 0.2; for MRSG, no more than 0.2; for QQVV, no more than 0.2.
The figure for ESCY is no more than 0.2.
For the variant LRDS, the “one-hybrid fitness for binding parS DNA” value was no more than 0.2.
For KLLR the value was no more than 0.2; for YVYF, 0.232; for VRLA, no more than 0.2.
The figure for FGRW is no more than 0.2.
Consider QLRF, for which the “one-hybrid fitness for binding parS DNA” value was no more than 0.2.
For the variant NYAY, the “one-hybrid fitness for binding parS DNA” value was no more than 0.2.
The figure for AVGD is no more than 0.2; for IHDG it is no more than 0.2; for RQRE it is no more than 0.2.
For the variant HTIF, the “one-hybrid fitness for binding parS DNA” value was no more than 0.2.
For KDTS the value was no more than 0.2.
For SLEC, the “one-hybrid fitness for binding parS DNA” value was no more than 0.2.
The figure for GPVI is no more than 0.2; for REVA it is no more than 0.2.
As to KAVG, the “one-hybrid fitness for binding parS DNA” value is no more than 0.2.
The figure for MRQA is no more than 0.2; for HIMT it is no more than 0.2; for NVDG it is no more than 0.2.
Take TFRM: the “one-hybrid fitness for binding parS DNA” value was no more than 0.2.
As to RGQF, the “one-hybrid fitness for binding parS DNA” value was no more than 0.2.
The figure for SQSP is no more than 0.2.
The figure for DRPK is no more than 0.2; for RHWL it is no more than 0.2.
As for FSAM, the “one-hybrid fitness for binding parS DNA” value is no more than 0.2.
For NAFI the value was no more than 0.2; for TPLE, no more than 0.2; for LQKT, no more than 0.2.
The figure for QCKY is no more than 0.2; for QCMC it is no more than 0.2.
For ATGW the value was no more than 0.2.
Regarding VSFR, the “one-hybrid fitness for binding parS DNA” value is no more than 0.2.
For PSGM the value was no more than 0.2.
The figure for QAFA is no more than 0.2; for RKNE it is no more than 0.2; for GHTQ it is no more than 0.2.
For PNLT the value was no more than 0.2; for NLML, no more than 0.2; for FSDG, no more than 0.2.
As for VRSH, the “one-hybrid fitness for binding parS DNA” value was no more than 0.2.
The figure for TTST is no more than 0.2; for AQLT it is no more than 0.2.
The figure for SNND is no more than 0.2.
For NLRR the value was no more than 0.2.
Take NAMP: the “one-hybrid fitness for binding parS DNA” value was no more than 0.2.
Turning to DLYV, the “one-hybrid fitness for binding parS DNA” value is no more than 0.2.
The figure for QAFF is no more than 0.2; for AQRK it is no more than 0.2; for ISAP it is no more than 0.2.
For FPES the value was no more than 0.2.
For PQDR the value was no more than 0.2; for LKDG, no more than 0.2; for LRCR, no more than 0.2.
In the case of GAHG, the “one-hybrid fitness for binding parS DNA” value was no more than 0.2.
The figure for VGRN is no more than 0.2; for LQES it is no more than 0.2.
For STKH the value was no more than 0.2.
The figure for CWTS is no more than 0.2; for NMTR it is no more than 0.2; for EAGG it is no more than 0.2.
ELNM: the “one-hybrid fitness for binding parS DNA” value is no more than 0.2.
Consider RPHS, for which the “one-hybrid fitness for binding parS DNA” value was no more than 0.2.
The figure for NVQM is no more than 0.2.
QNKV: the “one-hybrid fitness for binding parS DNA” value was no more than 0.2.
For GSHF the value was no more than 0.2; for RAKG, 0.937.
For TLQS the value was no more than 0.2.
For HPKI the value was no more than 0.2; for FESR, no more than 0.2.
Regarding ISDC, the “one-hybrid fitness for binding parS DNA” value is no more than 0.2.
The figure for GERY is no more than 0.2.
The figure for EWTR is no more than 0.2.
As to TDTT, the “one-hybrid fitness for binding parS DNA” value is no more than 0.2.
For KFCG the value was no more than 0.2; for RSAI, no more than 0.2.
For YMDG the value was no more than 0.2; for DRTE, no more than 0.2.
As to GSLL, the “one-hybrid fitness for binding parS DNA” value was no more than 0.2.
For EEAD the value was no more than 0.2.
The figure for WPVG is no more than 0.2.
The figure for YPRY is no more than 0.2.
Take AKHG: the “one-hybrid fitness for binding parS DNA” value was no more than 0.2.
For ENMS the value was no more than 0.2; for DIIN, no more than 0.2.
The figure for ISHY is no more than 0.2; for VPSM it is no more than 0.2.
For SIMC the value was no more than 0.2.
Turning to AGIE, the “one-hybrid fitness for binding parS DNA” value was no more than 0.2.
Turning to DGER, the “one-hybrid fitness for binding parS DNA” value was no more than 0.2.
The figure for RIAI is no more than 0.2; for RMLY it is 0.5; for APRE it is no more than 0.2.
The figure for RQRC is 0.943; for NMPL it is no more than 0.2; for GNGS it is no more than 0.2.
The figure for QSIA is no more than 0.2; for KAKS it is no more than 0.2.
AVCT: the “one-hybrid fitness for binding parS DNA” value is no more than 0.2.
For GHQC, the “one-hybrid fitness for binding parS DNA” value was no more than 0.2.
The figure for NVVW is 0.312; for EGGY it is no more than 0.2; for WAPL it is no more than 0.2.
The figure for RYEG is 0.901; for AKKY it is no more than 0.2.
Regarding HCIR, the “one-hybrid fitness for binding parS DNA” value is no more than 0.2.
The figure for GKFG is no more than 0.2; for RTRH it is 0.4; for PDSL it is no more than 0.2.
For FRYT the value was no more than 0.2; for WHPS, no more than 0.2; for RHIT, 0.581.
The figure for DFKC is no more than 0.2; for DGQR it is no more than 0.2.
Consider QRHD, for which the “one-hybrid fitness for binding parS DNA” value is no more than 0.2.
For YCIG the value was no more than 0.2.
For EPSR the value was no more than 0.2.
The figure for AREW is no more than 0.2; for QTST it is no more than 0.2; for IYNC it is no more than 0.2.
Regarding ASET, the “one-hybrid fitness for binding parS DNA” value is no more than 0.2.
The figure for NINS is no more than 0.2; for FLTY it is no more than 0.2.
The figure for HMLI is no more than 0.2.
On to ECPG, for which the “one-hybrid fitness for binding parS DNA” value is no more than 0.2.
The figure for RFTV is no more than 0.2; for RIRF it is 0.247; for PWEK it is no more than 0.2.
The figure for SIAA is no more than 0.2.
For HEIA the value was no more than 0.2.
In the case of RNFT, the “one-hybrid fitness for binding parS DNA” value was determined as 0.573.
For RPVF the value was no more than 0.2; for SFAS, no more than 0.2; for VFVV, no more than 0.2.
The figure for CGTR is no more than 0.2; for DRRR it is no more than 0.2.
For NDRI the value was no more than 0.2; for RLQF, 0.229.

Source of the values: a collection of fitness landscapes (doi:10.1016/j.celrep.2020.107928).
